pIC50: −log10 of the molar value. Lines with a small IC50 respond at low doses; where the fit passes the top or lowest dose, that dose stands as a limit. AUC sums up the same curve from the lowest dose to the 256-fold higher top dose; the more sensitive the line, the further below 1. For part of these data: An inferred top dose was calculated from the reported fits.
Tests used:
Experiment in all cases: Viability of human cancer cell lines after 72 h of drug (GDSC screen)
AG-014699 = compound: CNCc1ccc(-c2[nH]c3cc(F)cc4c3c2CCNC4=O)cc1 [AG-014699]; details: top dose 5 µM; top dose inferred
Description: (§1)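 Human cancer cell lines in 384-well plates, medium with 10% serum, drug for 72 h over a 256-fold dose range (nine 2-fold or five 4-fold steps up to the top dose). Adherent lines were fixed and stained with the nucleic acid dye Syto60, suspension lines read with resazurin; signal relative to control wells, capped at 0 and 100%. One two-parameter sigmoid per drug and line, fitted in a mixed model over all curves with the slope shared within a line.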

XL-184 = compound: COc1cc2nccc(Oc3ccc(NC(=O)C4(C(=O)Nc5ccc(F)cc5)CC4)cc3)c2cc1OC [XL-184]; details: top dose 5.12 µM; top dose inferred
Description: as §1

WHI-P97 = compound: COc1cc2ncnc(Nc3cc(Br)c(O)c(Br)c3)c2cc1OC [WHI-P97]; details: top dose 10.24 µM; top dose inferred
Description: as §1

Vinorelbine = compound: CCC1=C[C@@H]2CN(C1)Cc1c([nH]c3ccccc13)[C@@](C(=O)OC)(c1cc3c(cc1OC)N(C)[C@H]1[C@@](O)(C(=O)OC)[C@H](OC(C)=O)[C@]4(CC)C=CCN5CC[C@]31[C@@H]54)C2 [Vinorelbine]; details: top dose 0.064 µM; top dose inferred
Description: as §1

Phenformin = compound: N=C(N)NC(=N)NCCc1ccccc1 [Phenformin]; details: top dose 4000 µM; top dose inferred
Description: as §1

S-Trityl-L-cysteine = compound: N[C@@H](CSC(c1ccccc1)(c1ccccc1)c1ccccc1)C(=O)O [S-Trityl-L-cysteine]; details: top dose 5.12 µM; top dose inferred
Description: as §1

Gefitinib = compound: COc1cc2ncnc(Nc3ccc(F)c(Cl)c3)c2cc1OCCCN1CCOCC1 [Gefitinib]; details: top dose 0.5 µM
Description: as §1

NU-7441 = compound: O=c1cc(N2CCOCC2)oc2c(-c3cccc4c3sc3ccccc34)cccc12 [NU-7441]; details: top dose 2 µM; top dose inferred
Description: as §1

EHT 1864 = compound: O=c1cc(CN2CCOCC2)occ1OCCCCCSc1ccnc2cc(C(F)(F)F)ccc12 [EHT 1864]; details: top dose 10 µM; top dose inferred
Description: as §1

QL-XI-92 = compound: C=CC(=O)Nc1cc(NC(=O)c2ccc(C)c(NC(=O)c3ccno3)c2)cc(C(F)(F)F)c1 [QL-XI-92]; details: top dose 10.24 µM; top dose inferred
Description: as §1

Cell Line	AUC (AG-014699)	pIC50 (AG-014699)	AUC (XL-184)	pIC50 (XL-184)	AUC (WHI-P97)	pIC50 (WHI-P97)	AUC (Vinorelbine)	pIC50 (Vinorelbine)	AUC (Phenformin)	pIC50 (Phenformin)	AUC (S-Trityl-L-cysteine)	pIC50 (S-Trityl-L-cysteine)	AUC (Gefitinib)	pIC50 (Gefitinib)	AUC (NU-7441)	pIC50 (NU-7441)	AUC (EHT 1864)	pIC50 (EHT 1864)	AUC (QL-XI-92)	pIC50 (QL-XI-92)
697 (lymphoblastic leukaemia, suspension)	0.773	5.80	0.821	5.65	0.876	5.17	0.486	8.43	0.149	4.54	0.534	6.41	0.991	< 6.30	0.881	5.86	0.905	5.06	0.8	5.42
A3-KAW (B-cell lymphoma, suspension)	0.991	< 5.30	0.913	5.32	0.907	5.05	0.779	7.68	0.416	3.81	0.64	6.15	0.99	< 6.30	0.993	< 5.70	0.943	< 5.00	0.883	5.15
A704 (kidney, adherent)			0.929	< 5.29	0.983	< 4.99	0.987	< 7.19			0.985	< 5.29	0.989	< 6.30	0.909	< 5.70	0.972	< 5.00	0.958	< 4.99
ALL-SIL (T-cell leukaemia, suspension)			0.532	6.41	0.917	< 4.99	0.348	8.79	0.416	3.82	0.714	5.94	0.988	< 6.30	0.987	< 5.70	0.969	< 5.00	0.478	6.25
BB65-RCC (kidney, adherent)	0.96	< 5.30	0.924	< 5.29	0.977	< 4.99	0.807	7.41	0.71	2.97	0.781	5.61	0.919	< 6.30			0.949	< 5.00	0.96	< 4.99
CAS-1 (glioma, adherent)	0.945	< 5.30	0.896	< 5.29	0.981	< 4.99	0.818	7.26	0.79	2.59	0.981	< 5.29	0.976	< 6.30	0.966	< 5.70			0.95	< 4.99
DB (B-cell lymphoma, suspension)			0.929	< 5.29	0.956	< 4.99	0.64	7.99	0.346	4.05	0.889	< 5.29	0.965	< 6.30	0.932	< 5.70			0.953	< 4.99
DOHH-2 (B-cell lymphoma, suspension)							0.592	8.15			0.602	6.22	0.854	6.42	0.984	< 5.70				
EHEB (lymphoid neoplasm, suspension)	0.959	< 5.30					0.841	< 7.19			0.85	< 5.29	0.977	< 6.30	0.916	< 5.70	0.978	< 5.00		
ES4 (Ewing sarcoma, adherent)	0.924	< 5.30	0.908	< 5.29	0.876	< 4.99	0.742	7.66	0.814	2.59	0.81	5.50	0.942	< 6.30	0.96	< 5.70			0.932	< 4.99
IST-SL2 (small cell lung carcinoma, suspension)	0.965	< 5.30					0.754	7.67	0.986	< 2.40	0.746	5.79	0.977	< 6.30	0.985	< 5.70	0.964	< 5.00	0.764	5.43
KCL-22 (chronic myeloid leukaemia, suspension)			0.77	5.78	0.977	< 4.99	0.659	7.99	0.719	3.03	0.586	6.28	0.99	< 6.30	0.977	< 5.70	0.986	< 5.00	0.673	5.75
KMS-12-BM (myeloma, suspension)	0.991	< 5.30	0.958	< 5.29	0.967	< 4.99	0.618	8.10	0.656	3.21	0.73	5.90	0.985	< 6.30			0.934	< 5.00	0.899	5.05
KOPN-8 (B-cell leukaemia, suspension)			0.833	5.57	0.951	< 4.99	0.722	7.82	0.434	3.77	0.665	6.07	0.99	< 6.30	0.96	< 5.70	0.971	< 5.00	0.781	5.44
LB647-SCLC (small cell lung carcinoma, semi-adherent)	0.985	< 5.30					0.584	8.16	0.972	< 2.40	0.794	5.57	0.955	< 6.30	0.985	< 5.70	0.985	< 5.00		
LB2241-RCC (kidney, adherent)	0.884	< 5.30	0.969	< 5.29	0.956	< 4.99	0.919	< 7.19	0.896	< 2.40	0.974	< 5.29	0.779	6.64			0.901	< 5.00	0.984	< 4.99
LS-123 (large intestine, adherent)	0.982	< 5.30	0.919	< 5.29	0.967	< 4.99	0.966	< 7.19	0.82	2.48	0.964	< 5.29	0.98	< 6.30			0.958	< 5.00	0.926	< 4.99
MHH-NB-11 (neuroblastoma, adherent)			0.92	< 5.29	0.969	< 4.99	0.929	< 7.19	0.937	< 2.40	0.843	5.38	0.984	< 6.30	0.904	< 5.70			0.921	< 4.99
MMAC-SF (melanoma, adherent)			0.986	< 5.29	0.963	< 4.99	0.733	7.72	0.977	< 2.40	0.793	5.61	0.959	< 6.30	0.98	< 5.70			0.951	< 4.99
MOLM-13 (acute myeloid leukaemia, suspension)	0.903	< 5.30			0.695	5.67	0.568	8.22	0.595	3.35	0.568	6.31	0.969	< 6.30	0.971	< 5.70	0.965	< 5.00	0.762	5.46
MONO-MAC-6 (acute myeloid leukaemia, suspension)	0.974	< 5.30			0.86	5.03	0.657	7.95	0.51	3.58	0.692		0.945	< 6.30	0.899	< 5.70	0.908	< 5.00	0.957	< 4.99
MSTO-211H (mesothelioma, adherent)	0.991	< 5.30	0.988	< 5.29	0.986	< 4.99			0.955	< 2.40	0.977	< 5.29	0.959	< 6.30	0.984	< 5.70	0.991	< 5.00	0.99	< 4.99
NB13 (neuroblastoma, adherent)	0.944	< 5.30	0.91	< 5.29	0.971	< 4.99	0.55	8.27	0.973	< 2.40	0.773	5.75	0.962	< 6.30	0.966	< 5.70			0.919	< 4.99
NCI-H1581 (large cell lung carcinoma, semi-adherent)	0.99	< 5.30	0.936	< 5.29	0.983	< 4.99	0.872	7.28	0.606	3.32	0.862	5.42	0.982	< 6.30			0.938	< 5.00	0.951	< 4.99
NCI-H1666 (lung adenocarcinoma, semi-adherent)	0.987	< 5.30	0.982	< 5.29	0.967	< 4.99	0.971	< 7.19	0.792	2.70	0.987	< 5.29	0.795	6.59			0.984	< 5.00	0.986	< 4.99
NCI-H1838 (lung adenocarcinoma, adherent)	0.985	< 5.30	0.981	< 5.29	0.974	< 4.99	0.987	< 7.19	0.834	2.46	0.98	< 5.29	0.951	< 6.30	0.984	< 5.70			0.985	< 4.99
ONS-76 (medulloblastoma, adherent)	0.877	< 5.30	0.968	< 5.29	0.965	< 4.99	0.493	8.42			0.885	< 5.29	0.982	< 6.30	0.985	< 5.70	0.953	< 5.00	0.813	5.22
SK-ES-1 (Ewing sarcoma, semi-adherent)			0.927	< 5.29	0.93	< 4.99	0.642	8.00	0.763	2.82	0.786	5.63	0.967	< 6.30	0.915	< 5.70	0.973	< 5.00	0.953	< 4.99
SK-N-FI (neuroblastoma, adherent)			0.974	< 5.29	0.986	< 4.99	0.986	< 7.19	0.946	< 2.40	0.849	5.42	0.98	< 6.30	0.968	< 5.70	0.97	< 5.00	0.986	< 4.99
